The record followed here is patent US20260137822A1 (ABDERA THERAPEUTICS, published 2026).

The term Kd denotes the free concentration of one partner at which half of the binding sites on the other are occupied at equilibrium, for simple one-to-one binding. For orientation: koff means the rate constant with which the complex falls apart. What is called kon is the second-order rate constant of association. As usually defined, the EC50 is the concentration that produces a half-maximal response.

The target of assay [1] is T1, mouse FOLR1 (recombinant antigen) (mouse, UniProt P35846 25-232, limits assumed).
T1 construct: also called mFOLR1
In words: BLI (Octet), construct captured on AHC biosensor, mFOLR1 as analyte. (In general: In BLI a coated tip is dipped into the sample, and binding shifts an interference pattern.)

In assay [2] the target is T1, mouse FOLR1 (recombinant antigen). The assay is described as follows: ELISA on mFOLR1.
T1 sequence (P35846 25-232 limits assumed): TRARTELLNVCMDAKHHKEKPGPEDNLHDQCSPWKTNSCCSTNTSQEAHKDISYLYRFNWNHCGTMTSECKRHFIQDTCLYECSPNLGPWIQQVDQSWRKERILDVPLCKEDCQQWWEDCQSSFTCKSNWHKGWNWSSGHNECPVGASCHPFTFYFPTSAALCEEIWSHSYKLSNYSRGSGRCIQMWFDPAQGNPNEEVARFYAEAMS
Assay [3] has as its target T2, human DLL3 (recombinant antigen) (human, UniProt Q9NYJ7 27-492, limits assumed).
T2 construct: also called hDLL3
T2 sequence (looked up): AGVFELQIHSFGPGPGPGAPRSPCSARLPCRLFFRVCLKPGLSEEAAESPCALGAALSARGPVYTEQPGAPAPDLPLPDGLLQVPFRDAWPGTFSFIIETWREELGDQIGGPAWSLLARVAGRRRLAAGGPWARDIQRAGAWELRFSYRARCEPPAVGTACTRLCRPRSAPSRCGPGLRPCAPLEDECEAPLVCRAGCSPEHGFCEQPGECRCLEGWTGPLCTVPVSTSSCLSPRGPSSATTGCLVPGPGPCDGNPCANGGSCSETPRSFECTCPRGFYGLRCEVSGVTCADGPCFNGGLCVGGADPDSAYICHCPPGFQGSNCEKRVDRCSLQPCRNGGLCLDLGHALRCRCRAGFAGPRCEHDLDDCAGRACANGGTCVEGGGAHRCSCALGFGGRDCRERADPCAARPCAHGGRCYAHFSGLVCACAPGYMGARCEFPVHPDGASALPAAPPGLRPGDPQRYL
In words: SPR (Carterra LSA), VHH-Fc captured on anti-human Fc, hDLL3 as analyte, 1:1 fit.

The target in assay [4] is T3, human DLL3 on cells (HEK293T cells expressing human DLL3; SHP-77 cells) (human, UniProt Q9NYJ7 27-618).
T3 sequence (looked up): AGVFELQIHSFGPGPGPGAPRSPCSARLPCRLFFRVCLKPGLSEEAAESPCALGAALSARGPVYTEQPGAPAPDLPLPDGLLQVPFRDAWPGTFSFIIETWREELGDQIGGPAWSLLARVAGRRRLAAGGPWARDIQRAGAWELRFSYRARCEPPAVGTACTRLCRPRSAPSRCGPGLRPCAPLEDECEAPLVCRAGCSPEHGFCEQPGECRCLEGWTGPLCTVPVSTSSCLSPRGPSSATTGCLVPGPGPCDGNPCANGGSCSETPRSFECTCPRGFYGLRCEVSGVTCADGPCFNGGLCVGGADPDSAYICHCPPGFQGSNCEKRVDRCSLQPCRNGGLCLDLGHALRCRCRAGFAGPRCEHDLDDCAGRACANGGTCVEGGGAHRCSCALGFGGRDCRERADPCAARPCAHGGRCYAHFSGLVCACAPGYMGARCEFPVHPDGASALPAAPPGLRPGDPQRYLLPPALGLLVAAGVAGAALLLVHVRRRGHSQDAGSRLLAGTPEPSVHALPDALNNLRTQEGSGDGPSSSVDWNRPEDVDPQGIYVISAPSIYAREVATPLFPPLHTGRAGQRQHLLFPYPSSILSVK
In words: cell-based or functional assay.

Assay [5] has as its target T3, human DLL3 on cells (HEK293T cells …). The assay is described as follows: flow cytometry on SHP-77 cells (endogenous DLL3), WT-Fc format. (A flow cytometer gives signals particle by particle.)
The target of assay [6] is T4, mouse DLL3 (mouse, UniProt O88516 25-477, limits assumed).
T4 construct: recombinant antigen on optically encoded beads; also called mDLL3
T4 sequence (looked up): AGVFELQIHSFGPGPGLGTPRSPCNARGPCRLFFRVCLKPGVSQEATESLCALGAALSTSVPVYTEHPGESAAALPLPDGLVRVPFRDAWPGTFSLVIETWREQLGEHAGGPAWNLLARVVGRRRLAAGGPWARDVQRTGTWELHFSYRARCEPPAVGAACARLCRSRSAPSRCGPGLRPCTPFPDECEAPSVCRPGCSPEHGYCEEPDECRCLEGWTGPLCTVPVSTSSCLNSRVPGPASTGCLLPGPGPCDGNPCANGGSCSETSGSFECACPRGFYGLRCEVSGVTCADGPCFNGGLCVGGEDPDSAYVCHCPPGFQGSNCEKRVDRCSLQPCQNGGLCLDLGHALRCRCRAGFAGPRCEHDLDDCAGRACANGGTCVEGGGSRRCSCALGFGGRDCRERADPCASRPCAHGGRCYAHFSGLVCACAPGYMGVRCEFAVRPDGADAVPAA
In words: initial screening, bead-based binding assay (flow cytometry).

B1: Anti-FOLR1x4 GGSx3 (monospecific tetravalent VHH-VHH-Fc) (antibody)
chain: QVQLVESGGGLVQPGGSLRLSCAASGFTVSNSVMAWYRQTPGNEREFVAIINSIGITNYADSVKGRFTISRDNSKNTLYLQMNSLRAEDTAVYVCNRNFDRIYWGQGTLVTVSSGGSGGSGGSQVQLVESGGGLVQPGGSLRLSCAASGFTVSNSVMAWYRQTPGNEREFVAIINSIGITNYADSVKGRFTISRDNSKNTLYLQMNSLRAEDTAVYVCNRNFDRIYWGQGTLVTVSS[letters of human IgG1 Fc with C220S (EU numbers) omitted]
Turning to B1, in assay [1], the Kd is 5.28 nM, the off-rate constant (koff) turned out to be 0.00268 s⁻¹ and the kon was determined as 508000 M⁻¹ s⁻¹. Besides, in assay [2], the EC50 was determined as 0.09 nM.

B2: Clone 126 VHH-Fc (wildtype Fc/modified hinge) (Fc fusion)
chain: QVQLVESGGGMVQPGGSLRLSCAASGITFSMYSMSWYRQPPGKQRELVAATTTFGSTNYADSVKGRFTISRDNAKNTVYLQMNSLKPEDTAVYLCNARFTSEEYWGQGTQVTVSS[letters of human IgG1 Fc with C220S (EU numbers) omitted]
Take B2: in assay [3], the Kd amounted to 0.42 nM, the koff is 0.000221 s⁻¹ and the on-rate (kon) came out at 523000 M⁻¹ s⁻¹. Besides, in assay [4], the “HEK-DLL3 Internalization FOI” value is 7.56 fold over negative control. This molecule gave an EC50 in assay [5] of 1.07 nM.

B3: Clone ID 126 VHH-Fc (Fc fusion)
chain: QVQLVESGGGMVQPGGSLRLSCAASGITFSMYSMSWYRQPPGKQRELVAATTTFGSTNYADSVKGRFTISRDNAKNTVYLQMNSLKPEDTAVYLCNARFTSEEYWGQGTQVTVSS[letters of human IgG1 Fc with C220S (EU numbers) omitted]
notes: camelid VHH on human IgG1 Fc (VHH-Fc)
Take B3: the binding result in assay [6] is reported as “no binding”.

B4: Clone 24 VHH-Fc (wildtype Fc/modified hinge) (Fc fusion)
chain: QVQYVESGGGLVQPGGSLRLSCAASGFTFSSYRINWYRQPPGKGRELVGSITDTGSTNYADSVKGRFTISRDNAKNTVYLQMSSLKPEDTAVYYCRAPTIAAYWGQGTQVTVSS[letters of human IgG1 Fc with C220S (EU numbers) omitted]
notes: also called 24-H
For the molecule B4, in assay [3], the Kd stood at 7.83 nM, the koff stood at 0.00133 s⁻¹ and the kon was determined as 169000 M⁻¹ s⁻¹. For the same molecule, the “HEK-DLL3 Internalization FOI” value in assay [4] was 6.67 fold over negative control. This molecule also displayed an EC50 in assay [5] of 1.99 nM.

B5: Anti-FOLR1x4 GGGGSx3 (monospecific tetravalent VHH-VHH-Fc) (antibody)
chain: QVQLVESGGGLVQPGGSLRLSCAASGFTVSNSVMAWYRQTPGNEREFVAIINSIGITNYADSVKGRFTISRDNSKNTLYLQMNSLRAEDTAVYVCNRNFDRIYWGQGTLVTVSSGGGGSGGGGSGGGGSQVQLVESGGGLVQPGGSLRLSCAASGFTVSNSVMAWYRQTPGNEREFVAIINSIGITNYADSVKGRFTISRDNSKNTLYLQMNSLRAEDTAVYVCNRNFDRIYWGQGTLVTVSS[letters of human IgG1 Fc with C220S (EU numbers) omitted]
Take B5: in assay [1], the Kd was 6.59 nM, the koff came out at 0.00311 s⁻¹ and the kon worked out at 471000 M⁻¹ s⁻¹. The EC50 in assay [2] came to 0.08 nM.

B6: Clone 186 VHH-Fc (wildtype Fc/modified hinge) (Fc fusion)
chain: QVQVVESGGGLVQPGGSLTLSCAASGFDFSTYTVNWYRQAPGKEREKVARISSTGTTTNYANSAKGRFTLSRDNAKNRVYLQMNNLKPEDTAVYFCNFERFDSNYWGQGTQVTVSS[letters of human IgG1 Fc with C220S (EU numbers) omitted]
notes: also called 186-H
For the molecule B6, in assay [3], the Kd was 1.27 nM, the koff amounted to 0.000379 s⁻¹ and the kon was 300000 M⁻¹ s⁻¹. The “HEK-DLL3 Internalization FOI” value in assay [4] is 7.72 fold over negative control. In assay [5], this molecule came in with an EC50 of 0.475 nM.

B7: Clone ID 186 VHH-Fc (Fc fusion)
chain: QVQVVESGGGLVQPGGSLTLSCAASGFDFSTYTVNWYRQAPGKEREKVARISSTGTTTNYANSAKGRFTLSRDNAKNRVYLQMNNLKPEDTAVYFCNFERFDSNYWGQGTQVTVSS[letters of human IgG1 Fc with C220S (EU numbers) omitted]
notes: camelid VHH on human IgG1 Fc (VHH-Fc); also called 186-H
For the molecule B7, the binding result in assay [6] is “no binding”.

B8: Anti-FOLR1x4 GGSx4 (monospecific tetravalent VHH-VHH-Fc) (antibody)
chain: QVQLVESGGGLVQPGGSLRLSCAASGFTVSNSVMAWYRQTPGNEREFVAIINSIGITNYADSVKGRFTISRDNSKNTLYLQMNSLRAEDTAVYVCNRNFDRIYWGQGTLVTVSSGGSGGSGGSGGSQVQLVESGGGLVQPGGSLRLSCAASGFTVSNSVMAWYRQTPGNEREFVAIINSIGITNYADSVKGRFTISRDNSKNTLYLQMNSLRAEDTAVYVCNRNFDRIYWGQGTLVTVSS[letters of human IgG1 Fc with C220S (EU numbers) omitted]
Regarding B8, in assay [1], the Kd turned out to be 6 nM, the koff came to 0.00261 s⁻¹ and the kon turned out to be 435000 M⁻¹ s⁻¹. Also, the EC50 in assay [2] turned out to be 0.11 nM.

B9: Clone 100 VHH-Fc (wildtype Fc/modified hinge) (Fc fusion)
chain: QVQLVESGGGSVQPGGSLRLSCAASGIVFNSDVMGWYRQVPGKPRELVATITGGGSTNYATSVKGRFTISRDNAKNTVYLQMNSLRPEDTAVYYCNGRRGDSMLAFWAQGTQVTVSS[letters of human IgG1 Fc with C220S (EU numbers) omitted]
notes: also called 100-H
In the case of B9, in assay [3], the Kd was found to be 1.67 nM, the koff came out at 0.00027 s⁻¹ and the kon stood at 162000 M⁻¹ s⁻¹. The “HEK-DLL3 Internalization FOI” value in assay [4] was 8.78 fold over negative control. The same molecule gave an EC50 in assay [5] of 2.59 nM.

B10: Clone 107 VHH-Fc (wildtype Fc/modified hinge) (Fc fusion)
chain: QVQLVESGGGLVQAGDSLRLSCVASDRTFSSYAVGWFRQAPGKEREFVAAISWNGGRTLYTDSVTGRFTISRDNAKSTVYLQMNGLKPEDTAVYYCAARPAAPTRRLEYDYWGQGTQVTVSS[letters of human IgG1 Fc with C220S (EU numbers) omitted]
In the case of B10, in assay [3], the Kd is 4.83 nM, the koff worked out at 0.000442 s⁻¹ and the kon was 91500 M⁻¹ s⁻¹. Moreover, the “HEK-DLL3 Internalization FOI” value in assay [4] was 8.14 fold over negative control.
